Source: PubChem BioAssay AID588855 (National Center for Advancing Translational Sciences (NCATS), 2011)
Screen size: about 410,000 compounds; about 5,000 (1.2%) were called active. Inconclusive means that the source gave no clear call. Such entries were picked first, then a sample of the others. Calls come from the whole dose curve; as a rule, active = well fitted inhibition curve with a large enough effect; inconclusive = small, poorly fitted or top-dose-only effect; inactive = no such curve, though single readings can be large or run the other way. Where the call is inconclusive, the potency comes from a doubtful curve fit.
% is set by controls: 0 for no effect and ±100 for the full control effect; potency is the fitted concentration of half-maximal effect; tags give direction and shape of the fitted curve.

Assay: qHTS for Inhibitors of TGF-b; note: nearly all actives have a fitted effect of over 65% in size
Conditions: HepG2 CAGA-GFP TGF-b/SMAD3 reporter, GFP fluorescence, 18 h, TGF-beta stimulated, 500 pg/mL final; series mostly up to 46.1 µM; activity, negative = inhibition: at the top concentration
Procedure, shortened: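 HEPG2 CAGA-GFP, 1000 cells/well; 2 h settle, 37 C; cpd via pin tool; TGF-b 500 pg/mL final; 18 h, 37 C; GFP imaging ex488/em500-530; %Activity normalised to -TGF-b and +DMSO controls; CRC fit, curve class.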
For `COc1ccc(NC(=O)c2ccc(NC(=O)CCS(=O)(=O)c3cccs3)cc2)cc1OC`, the “activity, negative = inhibition” value was inactive: -0.166%. With `O=C(NCc1csc(-c2cccs2)n1)Nc1ccc(C(F)(F)F)cc1` the “activity, negative = inhibition” value was inactive: -33.7%. For `CCC(Oc1ccccc1)C(=O)NC1CCSC1=O` (configuration not stated), the “activity, negative = inhibition” value was inactive: 11.3%. For `COc1ccc(-c2noc(N3CCC(C(=O)NCc4ccc(F)cc4)CC3)n2)cc1`, the “activity, negative = inhibition” value was inactive: 2.88%. With `COCc1ccc(CN2CCC(C(=O)Nc3cccc(-c4cccc(Cl)c4)c3)CC2)o1` the Potency was inconclusive: 20 µM [inhibitor, single point]. For `C=CCOc1nc(N2CCCC2)nc(N2CCCC2)n1`, the Potency was inconclusive: 28.2 µM [inhibitor, single point]. With `COc1ccc(CCNc2ncnc3cc(OC)c(OC)cc23)cc1OC` the “activity, negative = inhibition” value was inactive: -18.4%. For `COc1ccc(C(=O)NC(=S)Nc2cccc(S(=O)(=O)N3CCOCC3)c2)cc1`, the “activity, negative = inhibition” value was inactive: 0%. For `CC1CCCN(c2ccc(C(=O)NCc3cccs3)cn2)C1` (configuration not stated), the Potency was inconclusive: 35.5 µM [inhibitor, partial curve, poor fit]. With `COc1ccc(CCNC(=S)NCCc2c[nH]c3ccccc23)cc1` the Potency was inconclusive: 35.5 µM [inhibitor, single point]. With `O=C(N/N=C/c1cc(Cl)cc([N+](=O)[O-])c1O)c1cc(-c2ccccn2)nc2ccccc12` the Potency was inconclusive: 31.6 µM [inhibitor, single point]. With `C/C(=N\NC(N)=S)C1=CCC2C3CC[C@H]4CC(O)CC[C@]4(C)C3CC[C@]12C` (some centres not stated) the Potency was inconclusive: 7.94 µM [inhibitor, partial curve, poor fit]. With `CCOc1ccc(Cl)cc1/C=N/NC(=O)CNC(=O)c1ccccc1` the Potency was inconclusive: 2.82 µM [inhibitor, single point]. With `Cc1ccc(NC(=O)Cn2nnc3ccccc32)c(C)c1` the “activity, negative = inhibition” value was inactive: 4.09%. In the case of `CCc1ccc(CNCc2ccc(OCC(O)CN(C)Cc3ccccc3)cc2)nc1` (configuration not stated), the Potency is reported as inconclusive: 35.5 µM [inhibitor, single point]. In the case of `OCC1OC(n2cnc3c(NCCc4ccccc4)ncnc32)C(O)C1O` (configuration not stated), the “activity, negative = inhibition” value is reported as inactive: -17%. For `O=S(=O)(NCc1ccc(Cl)cc1Cl)c1cccs1`, the Potency was inconclusive: 35.5 µM [inhibitor, single point]. For `Cc1ccc(Cl)cc1N1CCN(CCCNc2ncnc3onc(-c4ccc(Cl)cc4)c23)CC1`, the Potency was inconclusive: 0.112 µM [inhibitor, full curve, poor fit]. For `CC1CCCCC12NC(=O)N(CC(=O)NC1CCCc3ccccc31)C2=O` (configuration not stated), the Potency was inconclusive: 5.01 µM [inhibitor, partial curve]. With `COc1cccc(C(=O)Oc2ccccc2/C=C\C(=O)c2cc3ccccc3o2)c1` the Potency was inconclusive: 20 µM [inhibitor, partial curve, poor fit]. In the case of `CC(C)(C)C1=CC(O)(c2ccccc2)C=C(C(C)(C)C)C1=O`, the Potency is reported as inconclusive: 22.4 µM [inhibitor, single point]. In the case of `O=C(NC(c1ccc(-c2ccccc2)cc1)c1cnccn1)C1CCN(CCOc2ccc(Cl)cc2Cl)CC1` (configuration not stated), the Potency is reported as inconclusive: 35.5 µM [inhibitor, single point]. With `CCN(CC(=O)Nc1c(F)cccc1F)C(=O)CCC(=O)c1ccc(C)cc1` the Potency was inconclusive: 35.5 µM [inhibitor, single point]. In the case of `O=C(c1cc(C2CC2)nc2ccc(Br)cc12)N1N=C(C(F)F)CC1(O)C(F)F` (configuration not stated), the Potency is reported as active: 7.94 µM. With `C=C(C)C(=O)Nc1cccc(C2=NOC3(C2)C[C@H](C(N)=O)N(C(=O)CC)C3)c1` (some centres not stated) the Potency was inconclusive: 0.282 µM [inhibitor, full curve, poor fit]. For `CC1=CC2=NC(=O)/C(=C\c3cc(C)n(-c4ccccc4F)c3C)C(=N)N2O1`, the “activity, negative = inhibition” value was inactive: 6.05%. In the case of `Cn1nnnc1SCC(=O)NCc1ccccc1`, the “activity, negative = inhibition” value is reported as inactive: -19.9%. In the case of `Cc1ccc(C(=O)N/C(=C/C=C\c2ccccc2)C(=O)NCc2ccco2)cc1`, the Potency is reported as inconclusive: 10 µM [inhibitor, partial curve, poor fit]. With `Oc1oc(-c2ccccc2)nc1C=Nc1cccc2ccccc12` the “activity, negative = inhibition” value was inactive: -18.1%. For `CCN(CC1CCCO1)C(=O)C1CCN(C2CCN(Cc3ccccc3C)CC2)CC1` (configuration not stated), the Potency was inconclusive: 5.62 µM [inhibitor, single point]. With `O=C(c1ccco1)N1CCN(c2nc(C3CC3)nc3sc4c(c23)CCCC4)CC1` the Potency was inconclusive: 12.6 µM [inhibitor, partial curve, poor fit]. For `CCOC(=O)c1cc(-c2ccccc2)n(CCC(=O)NCCc2ccccc2)c1C`, the “activity, negative = inhibition” value was inactive: 0%. With `CCCCCCCCNCCS(=O)(=O)NCc1ccc(OC)cc1` the Potency was inconclusive: 35.5 µM [inhibitor, single point]. In the case of `Cc1ccc(C(=O)N[C@H](C(=O)Nc2ccc(F)cc2)C(C)C)cc1`, the “activity, negative = inhibition” value is reported as inactive: 3.48%. With `O=C(c1ccc(Cl)cc1)N1CCC2CC1c1cc(-c3ccccc3)ccc12` (configuration not stated) the Potency was active: 20 µM. With `COc1ccc(C)cc1NC(=O)c1nnn(Cc2cccc(Br)c2)c1N` the Potency was inconclusive: 35.5 µM [inhibitor, single point]. With `CCOC(=O)c1cnc2ccc(OC)cc2c1Nc1ccc(OCc2ccccc2Cl)cc1` the Potency was inconclusive: 10 µM [inhibitor, partial curve, poor fit]. In the case of `CN(CC(=O)Nc1ccc(Cl)c(C(F)(F)F)c1)C(=O)c1cnccn1`, the “activity, negative = inhibition” value is reported as inactive: -7.05%. In the case of `Oc1ccccc1Cc1c(O)ccc2ccccc12`, the Potency is reported as inconclusive: 8.91 µM [inhibitor, partial curve, poor fit]. With `Fc1cccc(Cc2c(-c3ccc(Cl)cc3)nc3ccc(Br)cn23)c1` the Potency was inconclusive: 11.2 µM [inhibitor, partial curve, poor fit]. For `S=C(NCCc1ccccc1)NCc1cccs1`, the “activity, negative = inhibition” value was inactive: -0.499%. With `O=C(CCN1C(=O)c2ccccc2C1=O)NC(=S)Nc1cccc(Cl)c1` the “activity, negative = inhibition” value was inactive: -5.4%. With `CN1CCN(c2ccc(NC(=O)c3ccc(-c4ccc(Br)cc4)o3)cc2)CC1` the Potency was inconclusive: 22.4 µM [inhibitor, single point]. In the case of `OCC[C@H]1C[C@H](O)[C@@H](O)[C@]2(CCc3ccccc3CO2)O1`, the “activity, negative = inhibition” value is reported as inactive: -9.53%. In the case of `CCCCNC(=O)C1(C)CCCCCN1Cc1cc2ccccc2o1` (configuration not stated), the Potency is reported as inconclusive: 35.5 µM [inhibitor, single point]. In the case of `CNC(=O)[C@@]1(Cc2ccccc2)C=C[C@@H](C)N1C(C)=O`, the Potency is reported as inconclusive: 0.112 µM [inhibitor, full curve, poor fit]. With `Oc1ccc(Cl)cc1C1C=C(c2ccc3c(c2)OCO3)NC(c2cc(Br)ccc2F)N1` (configuration not stated) the Potency was active: 7.94 µM. In the case of `Cc1ccc(C(=O)Nc2ccc(S(=O)(=O)N3CCOCC3)cc2)cc1`, the “activity, negative = inhibition” value is reported as inactive: 0%. With `C=CCn1c(-c2cccs2)nc2nc3ccccc3nc21` the Potency was inconclusive: 35.5 µM [inhibitor, single point]. In the case of `COC(=O)c1ccc(C2CC(=O)Nc3cc(OC)c(OC)c(OC)c32)cc1` (configuration not stated), the Potency is reported as inconclusive: 1.26 µM [inhibitor, partial curve]. In the case of `NS(=O)(=O)c1ccc(CCNCC#Cc2ccccc2)cc1`, the “activity, negative = inhibition” value is reported as inactive: -8.95%. With `Clc1ccc(C2[C@H]3CN(Cc4cccnc4)[C@H](c4ccccc4)C34CC2(c2ccccc2)C4)cn1` (some centres not stated) the Potency was inconclusive: 10 µM [inhibitor, partial curve, poor fit]. In the case of `O=C1C(c2ccccc2)NC(=S)N1C1CCCCC1` (configuration not stated), the “activity, negative = inhibition” value is reported as inactive: -17%. In the case of `CN1/C(=C\C(=O)C(F)F)C(C)(C)c2ccccc21`, the “activity, negative = inhibition” value is reported as inactive: 16%. With `CCc1nc(NCC2CC2)c2nnn(Cc3ccccc3)c2n1` the “activity, negative = inhibition” value was inactive: -4.99%. For `CCC(=O)NC(c1ccc(C)cc1)c1ccc2cccnc2c1O` (configuration not stated), the Potency was inconclusive: 3.55 µM [inhibitor, full curve]. In the case of `CC(=O)Nc1ccc(S(=O)(=O)NCCC(=O)NNC(=O)c2ccncc2)cc1`, the “activity, negative = inhibition” value is reported as inactive: 23.7%. For `Cc1ccc(C(=O)NC(NCc2ccccc2)C(Cl)(Cl)Cl)cc1` (configuration not stated), the Potency was inconclusive: 35.5 µM [inhibitor, single point]. In the case of `CSc1cccc(NC(=S)N(Cc2ccc(C)cc2)Cc2cccnc2)c1`, the “activity, negative = inhibition” value is reported as inactive: -29.5%. With `CC1CCN(c2oc(-c3cccs3)nc2S(=O)(=O)c2ccccc2)CC1` the Potency was inconclusive: 28.2 µM [inhibitor, single point]. In the case of `CCN(CCCNC(=O)c1cc2c(=O)n(CC)c3ccccc3c2s1)Cc1ccccc1`, the Potency is reported as inconclusive: 35.5 µM [inhibitor, single point]. With `CC1CCCCN1C(=O)c1ccc2c(c1)N(Cc1ccc(F)cc1)C(=O)c1ccccc1S2(=O)=O` (configuration not stated) the “activity, negative = inhibition” value was inactive: 0%. With `COc1cccc(C(=O)Nc2ccc3[nH]c(=O)[nH]c3c2)c1OC` the “activity, negative = inhibition” value was inactive: 4.99%. In the case of `CCc1ccccc1N1CCN(S(=O)(=O)c2cc(OC)ccc2OC)CC1`, the Potency is reported as inconclusive: 11.2 µM [inhibitor, partial curve]. In the case of `COC(=O)CN1C(C(=O)c2ccccc2)=C(OC(=O)c2ccc(F)cc2)c2ccccc2S1(=O)=O`, the Potency is reported as inconclusive: 35.5 µM [inhibitor, single point]. With `N#C/C(=C/c1ccc2c(c1)OCO2)C(=O)Nc1ccc(O)cc1` the “activity, negative = inhibition” value was inactive: -14.7%. In the case of `Cc1ccc(S(=O)(=O)c2cnc(SCC(=O)Nc3ccc4c(c3)OCCO4)[nH]c2=O)cc1C`, the “activity, negative = inhibition” value is reported as inactive: 8.07%. With `CCOc1c(Br)cc(C2CC(=O)Nc3cc(OC)c(OC)cc32)cc1OC` (configuration not stated) the “activity, negative = inhibition” value was inactive: 16.2%. For `COc1ccc(CC(=O)Nc2nc(-c3cc(OC)ccc3OC)cs2)cc1`, the Potency was inconclusive: 28.2 µM [inhibitor, single point]. In the case of `CCOCCc1nnc(NC(=O)C(=O)c2cc(C)n(-c3ccc(Cl)cc3)c2C)s1`, the Potency is reported as inconclusive: 35.5 µM [inhibitor, single point]. For `COC(=O)/C=C1\SC(=NC(=O)c2ccc(OC)cc2)NC1=O`, the Potency was inconclusive: 3.16 µM [inhibitor, partial curve, poor fit]. For `CC(CCc1ccc(O)cc1)NCc1ccc(Br)cc1` (configuration not stated), the Potency was inconclusive: 35.5 µM [inhibitor, single point].
